# Laboratory results as given in PubChem BioAssay (Tox21).
# “And” between values parts separate entries of the source, which are not always exact repeats. Identical values can stand only once. Inconclusive means that the source gave no clear call. Such entries were picked first, then a sample of the others. Potencies of inconclusive entries are doubtful fits and often do not repeat. A structure can be active in one record and inactive in another. The source made the active and inactive calls. Unless noted, calls follow the shape of the dose curve; as a rule, active = well fitted curve in the direction sought with a large enough effect in the repeat runs; inconclusive = weak or mixed curves; inactive = no such curve, though single readings can be large; an effect the other way counts as inactive or inconclusive.
# How the values were obtained:
# [1] = target: Aryl hydrocarbon receptor (Homo sapiens) (UniProt P35869); assay: qHTS assay to identify small molecule that activate the aryl hydrocarbon receptor (AhR) signaling pathway (AID 743085); also: nearly all actives have a fitted effect of over 15% in size
# Sequence of UniProt P35869 (P35869 whole entry, looked up): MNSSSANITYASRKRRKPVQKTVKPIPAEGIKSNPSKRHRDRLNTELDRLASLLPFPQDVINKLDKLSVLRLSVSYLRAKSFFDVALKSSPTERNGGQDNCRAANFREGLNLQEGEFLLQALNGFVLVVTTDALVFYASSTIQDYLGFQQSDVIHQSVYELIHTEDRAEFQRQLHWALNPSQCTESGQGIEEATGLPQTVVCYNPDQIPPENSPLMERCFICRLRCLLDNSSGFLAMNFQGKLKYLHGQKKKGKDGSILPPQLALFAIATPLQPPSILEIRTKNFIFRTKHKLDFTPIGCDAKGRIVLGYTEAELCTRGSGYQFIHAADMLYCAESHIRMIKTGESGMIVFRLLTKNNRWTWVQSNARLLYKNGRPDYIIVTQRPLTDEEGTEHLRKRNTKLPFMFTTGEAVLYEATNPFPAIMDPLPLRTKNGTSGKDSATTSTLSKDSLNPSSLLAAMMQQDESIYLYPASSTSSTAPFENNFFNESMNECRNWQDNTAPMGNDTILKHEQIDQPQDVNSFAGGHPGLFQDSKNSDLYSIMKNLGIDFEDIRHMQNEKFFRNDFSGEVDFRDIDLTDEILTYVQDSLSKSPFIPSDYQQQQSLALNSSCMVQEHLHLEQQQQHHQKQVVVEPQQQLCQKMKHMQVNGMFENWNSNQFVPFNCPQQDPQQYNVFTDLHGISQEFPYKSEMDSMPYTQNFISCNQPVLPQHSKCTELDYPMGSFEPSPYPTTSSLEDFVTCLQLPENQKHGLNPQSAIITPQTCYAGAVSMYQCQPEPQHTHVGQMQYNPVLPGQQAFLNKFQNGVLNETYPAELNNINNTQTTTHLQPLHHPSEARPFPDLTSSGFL
# How it was run: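 Luminescence (ONE-Glo) from a dioxin-responsive-element luciferase reporter in HG2L7.5c1 HepG2 cells after 24 hr compound exposure at 37C; viability measured by CellTiter-Fluor fluorescence beforehand.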
# [2] = target: Peroxisome proliferator-activated receptor gamma (Homo sapiens) (UniProt P37231); assay: qHTS assay to identify small molecule agonists of the peroxisome proliferator-activated receptor gamma (PPARg) signaling pathway (AID 743094; active = well fitted activation curve with a large enough effect in the signal ratio in the repeat runs, not every such curve was filed as active; inconclusive = weak or mixed curves, or effect the other way; inactive = no such curve, though single readings can be large or run the other way; the % refers to the signal ratio; as to activation: % is scaled to controls: 0 for no effect and ±100 for the full control effect); conditions: HEK293H PPARg-UAS-bla, beta-lactamase FRET ratio, 17 h; activation: at 57 µM (top of the series) unless noted
# Sequence of UniProt P37231 (P37231 whole entry, looked up): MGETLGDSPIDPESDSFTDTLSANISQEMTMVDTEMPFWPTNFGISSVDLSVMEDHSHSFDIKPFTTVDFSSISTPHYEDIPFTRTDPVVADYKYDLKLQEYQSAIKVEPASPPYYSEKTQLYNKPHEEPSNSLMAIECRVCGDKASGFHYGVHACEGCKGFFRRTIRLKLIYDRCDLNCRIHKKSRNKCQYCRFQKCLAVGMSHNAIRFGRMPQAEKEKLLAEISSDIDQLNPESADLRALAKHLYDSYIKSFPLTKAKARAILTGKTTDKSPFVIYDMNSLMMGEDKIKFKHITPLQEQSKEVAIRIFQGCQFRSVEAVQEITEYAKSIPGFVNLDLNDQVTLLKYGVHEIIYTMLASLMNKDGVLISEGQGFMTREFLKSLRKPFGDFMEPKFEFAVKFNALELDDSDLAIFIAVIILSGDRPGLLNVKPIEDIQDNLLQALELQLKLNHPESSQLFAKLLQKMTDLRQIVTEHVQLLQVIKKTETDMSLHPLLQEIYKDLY
# How it was run: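 GeneBLAzer PPARg UAS-bla HEK293H cells carrying a stably integrated beta-lactamase reporter were pre-incubated 5 h at 37C, then exposed to compounds in DMSO for 17 h at 37C; LiveBLAzer B/G FRET substrate was added for 1 h at room temperature and fluorescence read.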
# [3] = target: Peroxisome proliferator-activated receptor gamma (Homo sapiens) (UniProt P37231); assay: qHTS assay to identify small molecule antagonists of the peroxisome proliferator-activated receptor gamma (PPARg) signaling pathway (AID 743191; calls by dose curve; also: nearly all actives have a fitted effect of over 30% in size); conditions: HEK293H PPARg-UAS-bla, beta-lactamase ratio, antagonist, 17 h; ratio activity, negative = inhibition: at 62.6 µM (top of the series) unless noted
# How it was run: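 GeneBLAzer PPARg UAS-bla HEK293H cells, 5 h post-plating, exposed to compounds 17 h at 37C. LiveBLAzer B/G FRET substrate added for 1 h at room temperature; beta-lactamase reporter read by fluorescence intensity.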
# [4] = qHTS assay to identify small molecule antagonists of the peroxisome proliferator-activated receptor gamma (PPARg) signaling pathway - cell viability counter screen (AID 743194); conditions: PPARg-bla HEK293H viability, CellTiter-Glo luminescence, 17 h, co-treated with 50 nM rosiglitazone; activity change, negative = cytotoxicity: at 62.6 µM (top of the series) unless noted; also: nearly all actives have a fitted effect of over 55% in size; as to activity change, negative = cytotoxicity: % is scaled to controls: 0 for no effect and ±100 for the full control effect
# How it was run: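 Cytotoxicity counter screen in PPARg-bla HEK293H cells, same wells as reporter assay. Compounds plus 50 nM rosiglitazone (final) for 17 h at 37 C, then viability read by CellTiter-Glo luminescence.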
# [5] = qHTS assay for small molecule agonists of the antioxidant response element (ARE) signaling pathway (AID 743202; active = well fitted activation curve with a large enough effect in the signal ratio in the repeat runs, not every such curve was filed as active; inconclusive = weak or mixed curves, or effect the other way; inactive = no such curve, though single readings can be large or run the other way; the % refers to the signal ratio); conditions: HepG2 ARE-bla reporter, beta-lactamase FRET, 16 h; activation: at 73.3 µM (top of the series) unless noted
# How it was run: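 Agonist mode reporter screen: HepG2 cells with ARE-controlled beta-lactamase are incubated with test compounds for 16 h at 37 C, and beta-lactamase activity is measured as fluorescence of cleaved B/G FRET substrate.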
# [6] = qHTS assay for small molecule activators of the heat shock response signaling pathway - cell viability counter screen (AID 743209); conditions: HSE-bla HeLa viability, CellTiter-Glo luminescence, 5 h; activity change, negative = cytotoxicity: at 62.6 µM (top of the series) unless noted; also: nearly all actives have a fitted effect of over 50% in size; as to activity change, negative = cytotoxicity: % is scaled to controls: 0 for no effect and ±100 for the full control effect
# How it was run: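 CellSensor HSE-bla HeLa cells, plated overnight at 37 C/5% CO2, were exposed to compounds in DMSO for 5 h at 37 C. Viability was then read in the same wells by CellTiter-Glo luminescence after 30 min at room temperature.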
# [7] = qHTS assay to identify small molecule agonists of the peroxisome proliferator-activated receptor delta (PPARd) signaling pathway - cell viability counter screen (AID 743211); conditions: PPARd-bla HEK293H viability, CellTiter-Glo luminescence, 17 h; activity change, negative = cytotoxicity: at 62.6 µM (top of the series) unless noted; also: nearly all actives have a fitted effect of over 55% in size
# How it was run: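 Viability was measured as CellTiter-Glo luminescence (30 min, room temperature) in the same wells as the beta-lactamase readout. GeneBLAzer PPARd UAS-bla HEK293H cells received compound after 5 h plating and were incubated 17 h at 37 C.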
# [8] = qHTS assay to identify small molecule antagonists of the peroxisome proliferator-activated receptor delta (PPARd) signaling pathway - cell viability counter screen (AID 743213); conditions: PPARd-bla HEK293H viability, CellTiter-Glo luminescence, 17 h; viability change, negative = cytotoxic: at 62 µM (top of the series) unless noted; also: nearly all actives have a fitted effect of over 50% in size
# How it was run: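 PPARd-bla HEK293H cells were treated with compounds plus agonist L165041 (300 nM final) for 17 h at 37 C. Viability was then read in the same wells by CellTiter-Glo luminescence after 30 min at room temperature.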
# [9] = target: Peroxisome proliferator-activated receptor delta (Homo sapiens) (UniProt Q03181); assay: qHTS assay to identify small molecule antagonists of the peroxisome proliferator-activated receptor delta (PPARd) signaling pathway (AID 743215; active = well fitted inhibition curve with a large enough effect in the signal ratio in the repeat runs, not every such curve was filed as active; inconclusive = weak or mixed curves, or effect the other way; inactive = no such curve, though single readings can be large or run the other way; the % refers to the signal ratio;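 also: cells stimulated with agonist L165041 at 300 nM final during compound exposure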); conditions: HEK293H PPARd-UAS-bla, beta-lactamase FRET ratio, antagonist, 17 h; ratio activity, negative = inhibition: at 62 µM (top of the series) unless noted
# Sequence of UniProt Q03181 (Q03181 whole entry, looked up): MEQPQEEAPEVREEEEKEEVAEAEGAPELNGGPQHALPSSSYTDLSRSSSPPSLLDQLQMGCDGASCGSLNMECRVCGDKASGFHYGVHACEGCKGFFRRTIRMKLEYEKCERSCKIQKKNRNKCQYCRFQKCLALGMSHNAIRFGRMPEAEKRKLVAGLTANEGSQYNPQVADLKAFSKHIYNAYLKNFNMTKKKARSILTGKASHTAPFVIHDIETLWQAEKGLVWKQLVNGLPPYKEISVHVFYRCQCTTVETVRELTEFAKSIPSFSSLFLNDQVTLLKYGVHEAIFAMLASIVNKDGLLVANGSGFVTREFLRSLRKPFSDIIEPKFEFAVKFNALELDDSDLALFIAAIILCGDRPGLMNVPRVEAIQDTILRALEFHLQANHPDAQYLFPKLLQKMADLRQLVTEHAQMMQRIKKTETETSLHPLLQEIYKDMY
# How it was run: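 PPARd UAS-bla HEK293H cells were pre-incubated 5 h at 37 C, then given test compounds in DMSO plus agonist L165041 (300 nM final). After 17 h at 37 C, beta-lactamase FRET substrate was added; fluorescence read after 2 h at room temperature.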
# [10] = target: Bile acid receptor (Homo sapiens) (UniProt Q96RI1); assay: qHTS assay to identify small molecule antagonists of the farnesoid-X-receptor (FXR) signaling pathway (AID 743217; active = well fitted inhibition curve with a large enough effect in the signal ratio in the repeat runs, not every such curve was filed as active; inconclusive = weak or mixed curves, or effect the other way; inactive = no such curve, though single readings can be large or run the other way; the % refers to the signal ratio); conditions: HEK293T FXR-UAS-bla, beta-lactamase ratio, CDCA-stimulated, 16 h; activity change, negative = inhibition: at 62.6 µM (top of the series) unless noted
# Sequence of UniProt Q96RI1 (Q96RI1 whole entry, looked up): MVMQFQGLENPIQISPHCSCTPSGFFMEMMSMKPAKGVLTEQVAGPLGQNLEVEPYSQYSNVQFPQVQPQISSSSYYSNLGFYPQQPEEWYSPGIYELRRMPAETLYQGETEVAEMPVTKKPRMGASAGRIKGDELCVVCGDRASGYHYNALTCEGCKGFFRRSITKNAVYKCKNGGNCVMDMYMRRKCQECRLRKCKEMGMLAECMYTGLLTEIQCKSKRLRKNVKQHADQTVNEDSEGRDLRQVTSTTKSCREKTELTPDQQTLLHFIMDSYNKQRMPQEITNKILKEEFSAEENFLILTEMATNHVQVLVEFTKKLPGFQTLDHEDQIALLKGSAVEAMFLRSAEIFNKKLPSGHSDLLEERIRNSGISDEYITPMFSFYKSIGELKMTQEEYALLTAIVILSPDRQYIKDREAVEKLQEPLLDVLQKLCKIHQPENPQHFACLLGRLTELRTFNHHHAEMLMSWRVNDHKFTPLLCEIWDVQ
# How it was run: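 FXR-UAS-bla HEK 293T cells pre-incubated 5 h at 37 °C, then exposed to compounds with chenodeoxycholic acid (50 uM final) for 16 h at 37 °C. Beta-lactamase reporter read by LiveBLAzer B/G FRET substrate fluorescence after 2 h at room temperature.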
# [11] = qHTS assay to identify small molecule agonists of the farnesoid-X-receptor (FXR) signaling pathway - cell viability counter screen (AID 743218); conditions: FXR-bla HEK293T viability, CellTiter-Glo luminescence, 16 h; viability change, negative = cytotoxic: at 62.6 µM (top of the series) unless noted; also: nearly all actives have a fitted effect of over 45% in size
# How it was run: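 FXR-UAS-bla HEK 293T cells, plated 5 h at 37 C, were exposed to compounds for 16 h at 37 C. CellTiter-Glo was then added to the same wells as the bla readout; luminescence read after 30 min at room temperature.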
# [12] = qHTS assay to identify small molecule antagonists of the farnesoid-X-receptor (FXR) signaling pathway - cell viability counter screen (AID 743221; active = well fitted cell-killing curve with a large enough effect in the repeat runs, not every such curve was filed as active; inconclusive = weak or mixed curves, or effect the other way; inactive = no such curve, though single readings can be large or run the other way; also: nearly all actives have a fitted effect of over 50% in size); conditions: FXR-bla HEK293T viability, CellTiter-Glo luminescence, 16 h; activity change, negative = cytotoxicity: at 62.6 µM (top of the series) unless noted
# How it was run: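 Cytotoxicity counter screen run in the FXR-bla reporter wells: HEK 293T cells exposed to compound with 50 uM (final) chenodeoxycholic acid for 16 h, 37 C, then viability measured by CellTiter-Glo luminescence after 30 min, room temperature.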
# [13] = qHTS assay to identify small molecule agonists of the vitamin D receptor (VDR) signaling pathway - cell viability counter screen (AID 743224); conditions: VDR-bla HEK293T viability, CellTiter-Glo luminescence, 16 h; activity change, negative = cytotoxicity: at 62.6 µM (top of the series); also: nearly all actives have a fitted effect of over 50% in size
# How it was run: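 VDR-bla cells were preincubated 4 h at 37C/5% CO2, then exposed to compounds for 16 h. After the 2 h room-temperature bla FRET read, CellTiter-Glo was added to the same wells and luminescence read after 30 min.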
# [14] = qHTS assay to identify small molecule that activate the aryl hydrocarbon receptor (AhR) signaling pathway - cell viability counter screen (AID 743086); also: nearly all actives have a fitted effect of over 45% in size
# How it was run: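 HepG2-AhR-luc (HG2L7.5c1) cells, 4000/well, treated 24 h at 37 C with compound; viability measured as CellTiter-Fluor fluorescence after 30 min in the same wells as the luciferase read.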
# [15] = target: Vitamin D3 receptor (Homo sapiens) (UniProt P11473); assay: qHTS assay to identify small molecule agonists of the vitamin D receptor (VDR) signaling pathway (AID 743222; calls by dose curve); conditions: HEK293T VDR-UAS-bla, beta-lactamase FRET ratio, 16 h; activation: at 63.5 µM (top of the series) unless noted
# Sequence of UniProt P11473 (P11473 whole entry, looked up): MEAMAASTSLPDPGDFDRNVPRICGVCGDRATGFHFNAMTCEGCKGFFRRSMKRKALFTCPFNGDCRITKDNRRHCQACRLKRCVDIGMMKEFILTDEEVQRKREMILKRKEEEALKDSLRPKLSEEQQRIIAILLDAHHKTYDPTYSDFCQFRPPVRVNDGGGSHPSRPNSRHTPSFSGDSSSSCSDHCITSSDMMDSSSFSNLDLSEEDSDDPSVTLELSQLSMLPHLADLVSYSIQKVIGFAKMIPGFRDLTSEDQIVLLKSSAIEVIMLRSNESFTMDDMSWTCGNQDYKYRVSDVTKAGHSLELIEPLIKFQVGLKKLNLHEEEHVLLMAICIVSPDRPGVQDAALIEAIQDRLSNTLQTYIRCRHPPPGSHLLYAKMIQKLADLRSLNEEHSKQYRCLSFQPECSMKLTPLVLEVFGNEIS
# How it was run: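 VDR-bla cells were plated 4 h at 37C/5% CO2, then exposed to compounds in DMSO for 16 h. After LiveBLAzer B/G FRET substrate addition and 2 h at room temperature, beta-lactamase reporter fluorescence was read.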
# [16] = target: Vitamin D3 receptor (Homo sapiens) (UniProt P11473); assay: qHTS assay to identify small molecule antagonists of the vitamin D receptor (VDR) signaling pathway (AID 743223; active = well fitted inhibition curve with a large enough effect in the signal ratio in the repeat runs, not every such curve was filed as active; inconclusive = weak or mixed curves, or effect the other way; inactive = no such curve, though single readings can be large or run the other way; the % refers to the signal ratio; as to activity change, negative = inhibition: % is scaled to controls: 0 for no effect and ±100 for the full control effect); conditions: VDR-UAS-bla HEK293T, beta-lactamase FRET ratio, 16 h; activity change, negative = inhibition: at 61 µM (top of the series) unless noted
# How it was run: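 Antagonist mode: compound added to VDR-bla cells alongside agonist 1alpha,25-dihydroxyvitamin D3 (3 nM final), incubation 16 h at 37C. Read-out is LiveBLAzer FRET fluorescence, 2 h at room temperature.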
# [17] = qHTS assay for small molecule activators of the heat shock response signaling pathway (AID 743210; active = well fitted activation curve with a large enough effect in the signal ratio in the repeat runs, with a control signal flat, not every such curve was filed as active; inconclusive = weak or mixed curves; the % refers to the signal ratio); conditions: HeLa HSE-bla reporter, beta-lactamase ratio, 5 h; activation: at 62.6 µM (top of the series) unless noted
# How it was run: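 Quantitative high-throughput format using an engineered HeLa line in which heat shock response elements drive beta-lactamase; after 5 h with compound, cells received a B/G FRET substrate and fluorescence was read.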
# [18] = target: Peroxisome proliferator-activated receptor delta (Homo sapiens) (UniProt Q03181); assay: qHTS assay to identify small molecule agonists of the peroxisome proliferator-activated receptor delta (PPARd) signaling pathway (AID 743212; calls by dose curve); conditions: HEK293H PPARd-UAS-bla, beta-lactamase FRET ratio, 17 h; activation: at 62.6 µM (top of the series) unless noted
# How it was run: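 Quantitative high-throughput agonist screen in a HEK293H beta-lactamase reporter line under UAS control. Compounds in DMSO, at 37 C. Fluorescence read after 2 h with FRET substrate at room temperature.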
# [19] = target: Bile acid receptor (Homo sapiens) (UniProt Q96RI1); assay: qHTS assay to identify small molecule agonists of the farnesoid-X-receptor (FXR) signaling pathway (AID 743220; active = well fitted activation curve with a large enough effect in the signal ratio in the repeat runs, not every such curve was filed as active; inconclusive = weak or mixed curves, or effect the other way; the % refers to the signal ratio); conditions: HEK293T FXR-UAS-bla, beta-lactamase FRET ratio, 16 h; activation: at 62.6 µM (top of the series) unless noted
# How it was run: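 Beta-lactamase reporter under UAS control in GeneBLAzer FXR HEK 293T cells (5000/well) measured with LiveBLAzer FRET substrate after 2 h at room temperature. Compound exposure lasted 16 h at 37C.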
# Potency is read from the fitted curve at half-maximal effect; tags tell the direction and shape of the fitted curve or compound fluorescence and quenching.
compound,measurement,setting,value
NC(=Nc1ccccc1)Nc1ccccc1,Potency,[1],active: 19.3 µM
same,activation,[2],inconclusive: -8.39%
same,Potency,[3],inconclusive: 19.5 µM [activator]
same,"activity change, negative = cytotoxicity",[4],inconclusive: 11.8% [cytotoxic] [at 81.1 µM]
same,Potency,[5],"inconclusive: 1.54 µM [activator, partial curve, poor fit] and active: 13.3 µM"
same,"activity change, negative = cytotoxicity",[6],inconclusive: 27.9% [at 81.1 µM]
same,Potency,[7],inconclusive: 1.09 µM [cytotoxic]
same,Potency,[8],"inconclusive: 436 nM [cytotoxic, full curve, poor fit] and inconclusive: 298 nM [cytotoxic, single point]"
same,Potency,[9],"inconclusive: 0.123 µM [fluorescent, full curve, poor fit]"
same,Potency,[10],"inconclusive: 3.06 µM [activator, full curve, poor fit] and inconclusive: 15 µM [activator, partial curve, poor fit]"
same,Potency,[11],"inconclusive: 0.436 µM [rising, full curve, poor fit]"
same,Potency,[12],"inconclusive: 5.49 µM [phenotype inactive, full curve]"
same,Potency,[13],inconclusive: 1.95 µM
CCN(CC)CCNC(=O)c1c(C)[nH]c(/C=C2\C(=O)Nc3ccc(F)cc32)c1C,Potency,[1],"inconclusive: 15 µM [activator, partial curve]"
same,Potency,[14],active: 11.9 µM
same,Potency,[4],active: 16.8 µM
same,Potency,[5],"inconclusive: 26.6 µM [falling, partial curve]"
same,Potency,[6],"inconclusive: 7.5 µM [cytotoxic, partial curve]"
same,Potency,[7],active: 23.7 µM
same,Potency,[11],active: 13.3 µM
same,Potency,[12],active: 21.1 µM
same,Potency,[15],inconclusive: 33.5 µM
same,"activity change, negative = inhibition",[16],inconclusive: -44.9%
NC(N)=NN=C(/C=C/c1ccc([N+](=O)[O-])o1)/C=C/c1ccc([N+](=O)[O-])o1,Potency,[1],"inconclusive: 4.22 µM [activator, partial curve]"
same,Potency,[14],active: 7.5 µM
same,Potency,[4],active: 2.11 µM
same,Potency,[5],"inconclusive: 10.6 µM [falling, full curve]"
same,Potency,[6],active: 5.31 µM
same,Potency,[17],inconclusive: 6.43 µM
same,Potency,[7],active: 9.44 µM
same,Potency,[18],"inconclusive: 5.96 µM [rising, full curve]"
same,Potency,[9],"inconclusive: 2.98 µM [rising, full curve]"
same,Potency,[10],inconclusive: 9.44 µM
same,Potency,[11],active: 10.6 µM
same,Potency,[19],"inconclusive: 8.41 µM [fluorescent, full curve, poor fit]"
same,Potency,[15],"inconclusive: 4.22 µM [rising, partial curve]"
same,Potency,[16],"inconclusive: 8.49 µM [rising, partial curve]"
O=C(O)Cc1ccccc1Oc1ccc(Cl)cc1Cl,Potency,[1],"inconclusive: 13.3 µM [activator, single point]"
same,Potency,[14],"inconclusive: 29.8 µM [rising, single point]"
same,"ratio activity, negative = inhibition",[3],inconclusive: -24.6%
same,activation,[5],inconclusive: 30.5%
CC1CN(c2ccccc2)NC1=O (centres undefined),Potency,[1],"inconclusive: 24.3 µM [activator, partial curve]"
same,activation,[2],inconclusive: -10.7%
same,Potency,[4],"inconclusive: 0.0347 µM [cytotoxic, full curve, poor fit]"
same,Potency,[5],"inconclusive: 54.5 µM [rising, partial curve, poor fit]"
same,Potency,[7],"inconclusive: 54.9 µM [cytotoxic, partial curve, poor fit]"
same,Potency,[9],inactive
same,Potency,[16],"inconclusive: 3.47 µM [inhibitor, full curve, poor fit]"
CC(C)NNC(=O)c1ccncc1,Potency,[1],"inconclusive: 26.6 µM [activator, partial curve, poor fit]"
same,Potency,[2],inactive
same,activation,[5],inconclusive: -5.86%
same,Potency,[17],inactive
same,Potency,[8],"inconclusive: 596 nM [cytotoxic, full curve, poor fit]"
same,Potency,[15],inactive
same,Potency,[16],inactive
CN1C(=O)OC(C)(C)C1=O,Potency,[1],inactive
same,"ratio activity, negative = inhibition",[3],inconclusive: -2.84%
same,Potency,[5],inactive
Cc1ccc(Nc2c(F)cccc2Cl)c(CC(=O)O)c1,Potency,[1],inconclusive: 23.7 µM [activator]
same,Potency,[2],"inconclusive: 5.35 µM [activator, partial curve, poor fit]"
same,Potency,[3],"inconclusive: 2.11 µM [inhibitor, full curve]"
same,Potency,[5],inconclusive: 15 µM
same,Potency,[8],"inconclusive: 7500 nM [cytotoxic, single point]"
same,"ratio activity, negative = inhibition",[9],inconclusive: 15%
